Test results from publication PMC4336329 (PLoS ONE, 2015).
Screen size: about 310,000 compounds; about 2,200 (0.71%) showed an effect of 50% or more. Effects have a minus sign here. Some of the results follow.

Each compound was assayed against human ether-à-go-go-related gene (hERG) potassium channel (human, UniProt Q12809) (assay: primary screen, population patch clamp on CHO cells stably expressing hERG).
human ether-à-go-go-related gene (hERG) potassium channel, sequence (Q12809 whole entry, looked up): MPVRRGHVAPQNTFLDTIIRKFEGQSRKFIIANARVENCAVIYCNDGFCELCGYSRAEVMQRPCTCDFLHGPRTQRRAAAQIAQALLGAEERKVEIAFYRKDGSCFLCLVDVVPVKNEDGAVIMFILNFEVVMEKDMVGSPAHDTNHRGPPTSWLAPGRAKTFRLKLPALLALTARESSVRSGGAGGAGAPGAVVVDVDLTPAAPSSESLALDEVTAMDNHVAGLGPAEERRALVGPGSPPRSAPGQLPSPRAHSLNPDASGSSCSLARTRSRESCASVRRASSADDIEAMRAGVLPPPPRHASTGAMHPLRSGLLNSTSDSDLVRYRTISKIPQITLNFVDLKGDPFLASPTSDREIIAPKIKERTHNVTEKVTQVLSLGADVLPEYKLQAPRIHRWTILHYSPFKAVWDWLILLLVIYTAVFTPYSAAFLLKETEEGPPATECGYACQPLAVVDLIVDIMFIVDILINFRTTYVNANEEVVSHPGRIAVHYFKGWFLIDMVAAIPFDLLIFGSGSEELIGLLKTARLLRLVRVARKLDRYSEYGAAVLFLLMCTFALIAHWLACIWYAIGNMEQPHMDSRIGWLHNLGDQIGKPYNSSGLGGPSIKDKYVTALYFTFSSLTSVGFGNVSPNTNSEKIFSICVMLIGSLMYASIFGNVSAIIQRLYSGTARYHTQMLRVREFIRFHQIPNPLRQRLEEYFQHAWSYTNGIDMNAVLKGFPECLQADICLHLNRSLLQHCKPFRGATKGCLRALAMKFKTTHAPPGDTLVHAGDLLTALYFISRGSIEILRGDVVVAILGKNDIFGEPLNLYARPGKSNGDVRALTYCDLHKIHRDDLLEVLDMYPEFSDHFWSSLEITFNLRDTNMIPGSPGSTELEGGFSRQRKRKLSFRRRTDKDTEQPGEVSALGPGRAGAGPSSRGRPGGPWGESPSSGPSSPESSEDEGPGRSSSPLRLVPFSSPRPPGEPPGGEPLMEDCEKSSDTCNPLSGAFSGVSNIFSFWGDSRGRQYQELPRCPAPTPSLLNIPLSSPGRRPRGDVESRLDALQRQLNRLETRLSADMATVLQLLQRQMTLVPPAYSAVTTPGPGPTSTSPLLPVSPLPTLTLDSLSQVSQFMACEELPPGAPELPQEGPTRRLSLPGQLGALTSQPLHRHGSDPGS

Compared with `O=C1C2C3C=CC(CO)(O3)C2C(=O)N1c1ccc(-c2ccccc2)cc1` (centres unmarked), `COc1ccc(-c2c(C)nn(-c3ccccc3)c2N)cc1` is lower in “hERG current change (%, negative = inhibition) at 1uM” value: 12.7% for the first, -0.597% for the second.

Going from `Cc1ccc(NS(=O)(=O)c2cc([N+](=O)[O-])ccc2NNC(=S)Nc2cccc(Cl)c2)c(C)c1` to `Cc1ccc(S(=O)(=O)N/N=C/c2ccc(OCC(=O)Nc3ccccc3Cl)cc2)cc1`, the “hERG current change (%, negative = inhibition) at 1uM” value falls from 7.69% to 3.12%.

Compared with `CCN1C(=O)CC(N2CCN(c3ccc(C(=O)c4ccncc4)cc3)CC2)C1=O` (centres unmarked), `CC(c1ccccc1)N1CC(C(=O)N2CCN(c3ccc(F)cc3)CC2)CC1=O` (centres unmarked) is lower in “hERG current change (%, negative = inhibition) at 1uM” value: 18% for the first, -20% for the second.

First: CCN(CC#CCC(O)(c1ccccc1)c1ccccc1)C(C)C.Cl
Second: CC(C)N1C(=O)NC2(c3ccccc3)N(C)C(=O)N(C)C12c1ccccc1 (centres unmarked)
The “hERG current change (%, negative = inhibition) at 1uM” value of the first is lower: 3.1% for the first, 3.38% for the second.

Compared with `Cc1ccc(/C=C/C(=O)Nc2ccc(S(N)(=O)=O)cc2)o1`, `NS(=O)(=O)c1ccc(N/N=C/c2ccccc2Br)cc1` is higher in “hERG current change (%, negative = inhibition) at 1uM” value: 7.37% for the first, 15% for the second.

Going from `O=C1CN(C(=O)NCC(=O)N2CCCC2)c2ccccc2N1` to `COc1ccccc1N1CCN(Cc2ccco2)CC1.O=C(O)C(=O)O`, the “hERG current change (%, negative = inhibition) at 1uM” value falls from 16.9% to 1.33%.

Going from `Cc1[nH]c(-c2ccc(F)cc2)cc1C(=O)N1CCN(c2ccc(Cl)cc2)CC1` to `Cc1ccc(SCC(=O)Nc2ccc(N3CCN(c4ccccc4)CC3)c(F)c2)cc1`, the “hERG current change (%, negative = inhibition) at 1uM” value falls from 10.5% to 8.76%.

Compared with `COc1ccc(CC(=O)Nc2c3c(nn2C(C)(C)C)CS(=O)(=O)C3)cc1OC`, `CCOC(=O)C1CCN(C(=O)Cc2ccc(OC)c(OC)c2)CC1` is higher in “hERG current change (%, negative = inhibition) at 1uM” value: 4.43% for the first, 7% for the second.

First: O=C(NCc1ccccc1)NC(=O)c1ccccc1
Second: Cc1occc1C(=O)NNC(=O)C(c1ccccc1)c1ccccc1
The “hERG current change (%, negative = inhibition) at 1uM” value of the first is lower: -13.2% for the first, 10.6% for the second.

Going from `Cc1c(-n2c(SCC(=O)C(C)(C)C)nc3ccccc3c2=O)c(=O)n(-c2ccccc2)n1C` to `O=C(CSc1nc2ccccc2c(=O)n1-c1ccc(F)c(Cl)c1)Nc1cccc(S(=O)(=O)N2CCOCC2)c1`, the “hERG current change (%, negative = inhibition) at 1uM” value rises from 6.58% to 10.9%.

First: N#C/C(=C(/O)c1ccc([N+](=O)[O-])s1)c1nc2ccccc2[nH]1
Second: Cc1nc([N+](=O)[O-])c(Sc2nc3ccc([N+](=O)[O-])cc3[nH]2)n1Cc1ccccc1
The “hERG current change (%, negative = inhibition) at 1uM” value of the first is higher: 12.4% for the first, -18.1% for the second.

Compared with `Cc1cc(N2C3CCC2CC(O)(c2ccc(F)cc2)C3)nc(-c2ccccc2)n1` (centres unmarked), `CCOC(=O)N1CCN(c2nnc(-c3ccc(C)cc3)c3ccccc23)CC1` is lower in “hERG current change (%, negative = inhibition) at 1uM” value: 9% for the first, 2.25% for the second.

Going from `COc1cc2c(cc1OC)C(C(=O)NC(C)c1ccccc1)CC(=O)N2` (centres unmarked) to `CCCC(C(=O)Nc1cc(S(=O)(=O)N2CCOCC2)ccc1OC)c1ccccc1` (centres unmarked), the “hERG current change (%, negative = inhibition) at 1uM” value falls from 15.5% to 9.49%.

Going from `O=C(Cc1ccc(F)cc1)Nc1nccs1` to `CCc1ccc(CN(C(=O)c2cccs2)C2CCS(=O)(=O)C2)cc1` (centres unmarked), the “hERG current change (%, negative = inhibition) at 1uM” value falls from 9.15% to -13.4%.

Going from `COC(=O)c1ccc(CNCC(=O)Nc2ccc(C(=O)OC)cc2)cc1` to `CC(=O)Oc1ccc(C(=O)Nc2cccc(C(=O)NC(C)(C)C)c2)cc1`, the “hERG current change (%, negative = inhibition) at 1uM” value rises from 9.02% to 14%.

Compared with `CN(C)c1ccc(CC2C(=O)Nc3ccccc32)cc1` (centres unmarked), `CCCCn1c(-c2ccco2)nc2ccccc2c1=O` is higher in “hERG current change (%, negative = inhibition) at 1uM” value: 5.22% for the first, 12.4% for the second.

Going from `FC(F)(F)c1cccc(N2CCN(Cc3ccoc3)CC2)c1` to `Cc1ccc2[nH]c3c(c2c1)CN(C(=O)CN1CCN(c2ccccn2)CC1)CC3`, the “hERG current change (%, negative = inhibition) at 1uM” value rises from -13.1% to -3.52%.

First: Cc1cccc(NC(=O)COC(=O)CCc2ccc(S(=O)(=O)N3CCOCC3)cc2)c1C
Second: Cc1ccc(NC(=O)COC(=O)/C=C/c2cccc(Cl)c2)cc1S(=O)(=O)N1CCOCC1
The “hERG current change (%, negative = inhibition) at 1uM” value of the first is higher: 9.84% for the first, 2.59% for the second.

Going from `COc1cc(N(C)C)c([N+](=O)[O-])cc1C(=O)N1CCOCC1` to `O=C(c1ccc(Br)cc1)c1cc([N+](=O)[O-])ccc1N1CCOCC1`, the “hERG current change (%, negative = inhibition) at 1uM” value rises from 6.64% to 7.76%.

Compared with `O=C(OCc1nnc(-c2cccs2)o1)c1cccnc1Cl`, `O=C(Nc1ccc(Cl)c(Cl)c1)OCc1cccnc1` is higher in “hERG current change (%, negative = inhibition) at 1uM” value: 13.1% for the first, 25.1% for the second.

Going from `COc1ccc(S(=O)(=O)N2CCOC2CNC(=O)C(=O)NCCN(C)C)cc1` (centres unmarked) to `COc1ccc(-c2nc(CS(=O)(=O)CC(=O)NCCc3ccc(C)cc3)c(C)o2)cc1`, the “hERG current change (%, negative = inhibition) at 1uM” value falls from 12% to 9.96%.

First: Cc1noc(/C=C/N(C)C)c1S(=O)(=O)N1CCCC(C(=O)Nc2ccccc2F)C1 (centres unmarked)
Second: CCc1cc(C(=O)NC2CCCN(Cc3ccccc3F)C2)n(C)n1 (centres unmarked)
The “hERG current change (%, negative = inhibition) at 1uM” value of the first is higher: 8.7% for the first, 8.32% for the second.

Going from `COc1ccc(-n2c(=O)c3c4c(sc3n3c(=S)[nH]nc23)CCCC4)cc1` to `COc1ccc(CNC(=O)C2CSC(=O)C2)cc1` (centres unmarked), the “hERG current change (%, negative = inhibition) at 1uM” value rises from 8.8% to 8.88%.

Going from `COc1ccc(-c2noc(CSc3nc(N)cc(=O)[nH]3)n2)cc1` to `COc1ccc(OCc2nnc(SCC(=O)Nc3cccc(Cl)c3)o2)cc1`, the “hERG current change (%, negative = inhibition) at 1uM” value rises from 9.84% to 11.5%.

Going from `O=C1c2ccccc2C(=O)N1CCOc1cccc(Br)c1` to `O=C(CN1C(=O)c2ccccc2C1=O)NN1C(=O)c2ccccc2C1=O`, the “hERG current change (%, negative = inhibition) at 1uM” value falls from 14% to 4.36%.

Going from `COc1cc(C(=O)Nc2c(C)cc(C)cc2C)c(-n2cnnn2)cc1OC` to `COc1cc(C)ccc1OCc1cc(C(=O)NCc2ccncc2)no1`, the “hERG current change (%, negative = inhibition) at 1uM” value rises from 2.15% to 12.2%.

Compared with `Cc1[nH]c(C)c(S(=O)(=O)N2CCCCC2)c1C(=O)N1CCCC1`, `O=C(NCCc1ccc(Cl)cc1)c1cc(S(=O)(=O)N2CCCCC2)c[nH]1` is higher in “hERG current change (%, negative = inhibition) at 1uM” value: 6.23% for the first, 15.8% for the second.

Going from `COc1cccc(CN2CCNC(=O)C2CC(=O)NC2Cc3ccccc3C2)c1` (centres unmarked) to `Cc1cccc(C(=O)N2CCc3ccccc3C2)c1[N+](=O)[O-]`, the “hERG current change (%, negative = inhibition) at 1uM” value rises from 4.88% to 12.4%.

Compared with `COc1ccc(F)cc1C(=O)C1CCCN(C(=O)CCN2CCCCO2)C1` (centres unmarked), `COc1ccc(C(=O)N2CCCCC2)cc1S(=O)(=O)Nc1cccc(C(=O)O)c1` is lower in “hERG current change (%, negative = inhibition) at 1uM” value: 19.4% for the first, 10.7% for the second.

Compared with `Cc1ccccc1NC(=O)c1ccc(CN2CCc3ccccc3C2)cc1`, `Cc1ccccc1Cn1c(=O)n(CC2CCC(C(=O)NCCc3ccccc3)CC2)c(=O)c2ccccc21` (centres unmarked) is higher in “hERG current change (%, negative = inhibition) at 1uM” value: -9.22% for the first, 11.8% for the second.

Compared with `CC1CCc2[nH]c3ccc(C(=O)N(C)CC(=O)Nc4ccc(F)cc4)cc3c2C1` (centres unmarked), `O=C(c1ccc(F)cc1)N1CCC(C(=O)N2CCN(Cc3ccc4c(c3)OCO4)CC2)CC1` is higher in “hERG current change (%, negative = inhibition) at 1uM” value: 2.75% for the first, 4.61% for the second.

Compared with `O=C(Cc1ccccc1[N+](=O)[O-])NC1CC1`, `CC(Oc1cccc([N+](=O)[O-])c1)C(=O)NCCC1=CCCCC1` (centres unmarked) is lower in “hERG current change (%, negative = inhibition) at 1uM” value: 10.4% for the first, -2.17% for the second.

Going from `O=C(OCc1ccccc1)/C(=C/c1ccc(Cl)cc1)NC(=O)c1ccccc1Cl` to `COc1cc(/C=C/C(=O)OCC(=O)N(C)Cc2ccccc2)ccc1O`, the “hERG current change (%, negative = inhibition) at 1uM” value rises from 5.89% to 22.9%.

Going from `O=C(NCCc1ccccc1)C1CCN(S(=O)(=O)c2ccc(-c3nn[nH]n3)cc2)CC1` to `CN1CCN(C(=O)c2ccc(CNS(=O)(=O)c3cccc(Cl)c3)cc2)CC1`, the “hERG current change (%, negative = inhibition) at 1uM” value rises from -13.3% to -1.64%.

Compared with `COC(=O)c1ccc2c(=O)n(CCCCCC(=O)NCc3ccccc3)c(=O)[nH]c2c1`, `CSc1nnc(CNC(=O)c2ccccc2)n1-c1cccc(C)c1` is higher in “hERG current change (%, negative = inhibition) at 1uM” value: -7.36% for the first, 8.93% for the second.

Compared with `Cc1cc(C)n2c(SCC(=O)Nc3ncc(C(F)(F)F)cc3Cl)nnc2n1`, `Cc1cc(C(=O)CSc2nnnn2-c2ccc(O)cc2)c(C)n1Cc1ccc2c(c1)OCO2` is higher in “hERG current change (%, negative = inhibition) at 1uM” value: -2.23% for the first, 1.52% for the second.

Going from `O=C1CC(C(=O)O)(c2ccccc2)c2cccc(F)c21` (centres unmarked) to `Nc1nc(-c2ccc3ccccc3c2)cs1`, the “hERG current change (%, negative = inhibition) at 1uM” value rises from 11% to 11.8%.

First: N=c1c(S(=O)(=O)c2ccc(Cl)cc2)cc2c(=O)n3ccccc3nc2n1Cc1cccnc1
Second: Cn1c(=O)c2c(nc(NCc3ccc4c(c3)OCO4)n2Cc2ccccc2F)n(C)c1=O
The “hERG current change (%, negative = inhibition) at 1uM” value of the first is higher: 7.26% for the first, 2.18% for the second.

Compared with `NC12NC(=O)C3(O)C4C5CC(C6C5C3C61)C42` (centres unmarked), `COc1ccc(N2C(=O)/C(=C/c3ccc(OC)c(OC)c3)C(=O)NC2=S)cc1` is higher in “hERG current change (%, negative = inhibition) at 1uM” value: 8.74% for the first, 14.9% for the second.

Going from `Cc1ccc(S(=O)(=O)n2nc(C)cc2C)cc1` to `Cc1ccc(-c2nnc(SCC(=O)NC3CCS(=O)(=O)C3)nc2-c2ccc(C)cc2)cc1` (centres unmarked), the “hERG current change (%, negative = inhibition) at 1uM” value rises from 7.26% to 8.3%.

Going from `COc1ccc2cc(Br)ccc2c1CC(=O)NCC1CCCO1` (centres unmarked) to `CCc1ccc(C(=O)c2cnc3ccc(OC)cc3c2N2CCN(CC)CC2)cc1`, the “hERG current change (%, negative = inhibition) at 1uM” value falls from 15.4% to -46.6%.

Compared with `CCCCn1c2c(c(=N)c3c1CCC3)CCC2.I`, `Cc1nc2c(C(=O)NCCC3=CCCCC3)c[nH]n2c(=O)c1Cl` is higher in “hERG current change (%, negative = inhibition) at 1uM” value: 5.32% for the first, 12.2% for the second.

First: Cc1sc2ncnc(Nc3ccccc3)c2c1C
Second: S=C(Nc1cccnc1)N1CCN(c2ccccc2Cl)CC1
The “hERG current change (%, negative = inhibition) at 1uM” value of the first is lower: 6.07% for the first, 14.9% for the second.
